About 50,000 (12%) of roughly 420,000 compounds were called active. This list was built around the results that the source calls inconclusive (neither active nor inactive); the mix of calls is not that of the screen. Calls follow the shape of the dose curve; as a rule, active = well fitted inhibition curve with a large enough effect; inconclusive = small, poorly fitted or top-dose-only effect; inactive = flat fitted curve, though single readings scatter. Potencies of inconclusive entries are left out as doubtful fits.
test: qHTS for Inhibitors of human tyrosyl-DNA phosphodiesterase 1 (TDP1): qHTS in cells in presence of CPT; conditions: chicken DT40 Tdp1-/-;hTDP1 cells + 20 nM CPT, ATP luminescence, 48 h; activity change, negative = growth inhibition: at 46.2 µM (top of the series) unless noted; also: nearly all actives have a fitted effect of over 55% in size
Outline: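 Chicken DT40 Tdp1-/- cells complemented with human TDP1, 400 cells/well, exposed to compounds plus 20 nM camptothecin for at least 48 h at 37 C; viability read as ATP content by CellTiter-Glo luminescence.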
% is scaled to controls: 0 for no effect and ±100 for the full control effect; potency is read from the fitted curve at half-maximal effect; tags tell the direction and shape of the fitted curve.

| Structure (SMILES) | Potency | activity change, negative = growth inhibition |
| --- | --- | --- |
| Nc1cccc(C#Cc2ccc3c(c2)C(=O)/C(=C/c2ccsc2)O3)c1 | inconclusive [inhibitor, partial curve, poor fit] | – |
| Cc1ccc(-c2nc3c(cnn3-c3ccccc3)c(=O)n2-c2cccc(Cl)c2)cc1 | active: 23.1 µM | – |
| CCCCNC(=O)C[C@@H]1C[C@@]2(C(=O)OCC)CCCC=C2N(Cc2ccc3c(c2)OCO3)C1=O | inconclusive [inhibitor, single point] | – |
| CCOC(=O)c1ccc(NC(=S)N2CCN(CCO)CC2)cc1 | inactive | – |
| CCOC(=O)c1ccc(NS(=O)(=O)c2c(C)[nH]c(C)c2C(=O)N2CCCCC2)cc1 | inconclusive [inhibitor, single point] | – |
| Cc1ccc2sc(N(CCN(C)C)C(=O)c3ccc4ccccc4c3)nc2c1C | inconclusive [inhibitor, single point] | – |
| CC1CCCN(Cc2c(O)ccc3c(=O)c(Oc4ccc(C(C)(C)C)cc4)c(C(F)(F)F)oc23)C1 (configuration not stated) | inactive | – |
| O=C(Nc1ccc(Cl)cc1)NN1CC(=O)N(c2cccc(C(F)(F)F)c2)CC1=O | inactive | – |
| COC(=O)CNc1ccc2c(c1)OCO2 | inactive | – |
| O=C1C(c2ccc(F)cc2)N(Cc2ccc3c(c2)OCO3)C(=O)CN1C1CCCCCC1 (configuration not stated) | inconclusive [inhibitor, single point] | – |
| c1ccc(CCc2nn3c(C4COc5ccccc5O4)nnc3s2)cc1 (configuration not stated) | inconclusive [inhibitor, single point] | – |
| O=C1COc2ccc(NC(=O)N3CCN(c4ccc(F)cc4)CC3)cc2N1 | inconclusive [inhibitor, partial curve] | – |
| O=C(c1ccccc1Sc1ccc([N+](=O)[O-])cc1Cl)N1CCOCC1 | inconclusive [inhibitor, single point] | – |
| Cc1c(C(=O)Nc2ccc(S(=O)(=O)N(C)C3CCN(C)CC3)cc2)oc2c(Cl)cccc12 | inconclusive [inhibitor, single point] | – |
| OC(CNCCc1ccc(Cl)cc1Cl)COc1ccccc1 (configuration not stated) | inconclusive [inhibitor, single point] | – |
| COc1ccc(/C=C\C(=O)NC2CC(=O)N(c3ccc(F)cc3)C2)cc1OC (configuration not stated) | inactive | – |
| COc1ccc(N2C(S)=C(C#N)C(=O)NC2c2ccc(OC)c(OC)c2)cc1 (configuration not stated) | inconclusive [inhibitor, partial curve] | – |
| Cc1ccccc1NS(=O)(=O)c1ccc(C(=O)N2CCC2)cc1 | inactive | – |
| O=C(Cn1nc(-c2ccccc2)c2ccccc2c1=O)NCCO | inactive | – |
| CCOC(=O)c1c(-c2ccccc2)nc2c(C)cccn12 | active: 14.6 µM | – |
| CC(C)(C)N(Cc1ccccc1)C(=O)COC(=O)CSc1ccc([N+](=O)[O-])cc1 | inconclusive [inhibitor, single point] | – |
| O=C(CSc1cn(CCNC(=O)c2ccccc2F)c2ccccc12)Nc1ccccc1F | inconclusive [inhibitor, single point] | – |
| Cc1c(NC(=O)CC(C)C)cccc1-c1nc2cccnc2s1 | inconclusive [inhibitor, single point] | – |
| COc1cccc(-n2c(SCC(=O)Nc3cccc(Cl)c3)nc3c(oc4ccccc43)c2=O)c1 | inconclusive [inhibitor, single point] | – |

| Structure (SMILES) | Potency | activity change, negative = growth inhibition |
| --- | --- | --- |
| Cc1ccc(Cl)c(NC(=O)COC(=O)c2cc[n+]([O-])cc2)c1Cl | inactive | – |
| CN(CC(=O)Nc1ccc(F)cc1)C(=O)COc1ncnc2ccccc12 | inactive | – |
| COC(=O)c1cc(=O)nc2sc(-c3ccccc3)nn12 | inactive | – |
| Cc1nc(N2CCN(c3ccccn3)CC2)c2c(C)c(C(=O)Nc3ccccc3F)sc2n1 | inconclusive [inhibitor, single point] | – |
| N#C/C(=C(/O)COC(=O)CCCNC(=O)c1ccc(Cl)cc1)c1nc2ccccc2[nH]1 | inactive | – |
| CC(=O)c1ccc(N2CCN(C(=O)c3n[nH]c4ccccc34)CC2)cc1 | inconclusive [inhibitor, partial curve] | – |
| CN1CCN(C(=O)c2ccc(N3CCCC3=O)cc2)CC1 | inactive | – |
| O=C(NCc1ccc(F)cc1)C1CCCN(c2ncnc3onc(-c4ccc(F)cc4)c23)C1 (configuration not stated) | active: 20.6 µM | – |
| CCCCOc1ccc(C(C)NC(=O)C2CCCN(S(=O)(=O)CC)C2)cc1 (configuration not stated) | inconclusive [inhibitor, partial curve] | – |
| O=C(Nc1ccc(F)cc1F)N1CCCN(c2ccc(C(F)(F)F)cn2)CC1 | inconclusive [inhibitor, single point] | – |
| COCCN(C(=O)COC(=O)c1ccc(-c2ccccc2)cc1)c1c(N)n(Cc2ccccc2)c(=O)[nH]c1=O | inconclusive [inhibitor, single point] | – |
| CCOc1ccccc1CNC(=O)c1ccc(-c2nc(CSc3ccc(C)cc3)c(C)o2)cc1 | active: 9.2 µM | – |
| Cc1c(Cl)cccc1NC(=S)Nc1ccc(S(=O)(=O)Nc2ncccn2)cc1 | inactive | – |
| C=C(C)c1cccc(C(C)(C)NC(=O)N2CCN(CC(N)=O)CC2)c1 | inactive | – |
| COc1cccc(-c2ncc3ccccc3c2COC(=O)N(C)C)c1 | active: 18.4 µM | – |
| CS(=O)(=O)c1oc(-c2ccc(F)cc2)nc1S(=O)(=O)c1ccc(Cl)cc1 | active: 0.58 µM | – |
| COc1ccccc1N(CC(O)COc1ccccc1)S(=O)(=O)c1ccccc1 (configuration not stated) | inconclusive [inhibitor, single point] | – |
| Cc1ccc(-n2ncc3c2CC(C)(C)CC3NC(=O)c2c(C)noc2C)cc1 (configuration not stated) | inconclusive [inhibitor, partial curve] | – |
| COc1ccc(C(C)(C)C)cc1NC(=O)Nc1ccc2c(c1)OCO2 | inconclusive [inhibitor, single point] | – |
| CCOc1ccc(-n2c(=O)c3sccc3n(CC(=O)NCC3CCCO3)c2=O)cc1 (configuration not stated) | inactive | – |
| COc1ccc(NS(=O)(=O)c2cccc(NC(=O)c3ccc(S(=O)(=O)N4CCCCCC4)cc3)c2)cc1 | active: 3.66 µM | – |
| CC1=C(C(=O)N2CCOCC2)CC(CC(=O)NCc2cccs2)C(=O)N1Cc1ccc(C(C)(C)C)cc1 (configuration not stated) | active: 14.6 µM | – |
| CC(O)CNCCCOc1cccc(C(F)(F)F)c1 (configuration not stated) | inactive | – |
| O=c1ccnc(SCn2nnc3ccccc3c2=O)[nH]1 | inactive | – |

| Structure (SMILES) | Potency | activity change, negative = growth inhibition |
| --- | --- | --- |
| O=C1c2ccccc2C(=O)N1CCc1ccccn1 | inconclusive [inhibitor, partial curve] | – |
| CSc1ncccc1C(=O)NC1CCCCCCC1 | inactive | – |
| Cc1nn(C)cc1CN1CCCC(C(=O)c2ccc(-c3ccccc3)c(F)c2)C1 (configuration not stated) | active: 18.4 µM | – |
| CCc1nc2c(OCc3ccc(Cl)cc3)cccn2c1N(C)C(=O)c1cccs1 | inconclusive [inhibitor, single point] | – |
| CN(C)CC(NC(=O)c1cccc(S(=O)(=O)Nc2ccc3c(c2)OCO3)c1)c1ccccc1 (configuration not stated) | inconclusive [inhibitor, partial curve] | – |
| Cc1ccc(Nc2c(-c3ccsc3)nc3cccc(C)n23)cc1 | active: 16.4 µM | – |
| O=C(/C=C/c1ccccc1)NC(NC(=S)Nc1ccc(Cl)cc1Cl)C(Cl)(Cl)Cl (configuration not stated) | active: 20.6 µM | – |
| CCC(=O)NCCC1CCc2ccc3c(c21)CCO3 (configuration not stated) | inconclusive [inhibitor, single point] | – |
| COc1cc2sc3ccc(C#CC4(O)CCCCC4)cc3c(=O)c2cc1OC | inconclusive [inhibitor, single point] | – |
| Cc1ccc(SC(C)C(=O)Nc2cccnc2)cc1 (configuration not stated) | – | inconclusive: -34.3% [inhibitor] |
| CCOc1ccc(S(=O)(=O)NCc2ccc3c(c2)OCO3)cc1C(=O)O | inactive | – |
| COc1ccccc1-c1noc2ncnc(Nc3cccc(C)c3C)c12 | inconclusive [inhibitor, partial curve] | – |
| COc1cc(NC(=O)c2cc(C)nc3ccccc23)cc(OC)c1 | – | inconclusive: -33.6% [inhibitor] |
| Cc1ccc(SCc2nc(N)nc(Nc3ccccc3C)n2)cc1C | inconclusive [inhibitor, single point] | – |
| CCCCNC(=O)c1nc(C2CCN(S(=O)(=O)c3c(F)cccc3F)CC2)oc1-c1cccc(C(F)(F)F)c1 | inactive | – |
| CCCCC(C)Sc1nc2c([nH]1)c(=S)n(C)c(=O)n2C (configuration not stated) | active: 3.66 µM | – |
| COc1ccc(C(=O)Nc2cc(C)nn2-c2cccc(F)c2)cc1 | inconclusive [inhibitor, single point] | – |
| COC(=O)[C@]1(CC(C)C)N[C@H](c2ccc(-c3ccc(Cl)c(Cl)c3)cc2)[C@@H]2C(=O)N(C)C(=O)[C@@H]21 | inconclusive [inhibitor, single point] | – |
| O=C(NCCc1ccc(F)cc1)C(=O)Nc1cc2c3c(c1)CC(=O)N3CCC2 | inconclusive [inhibitor, single point] | – |
| CCOC(=O)[C@]12CCCC=C1N(Cc1ccc3c(c1)OCO3)C(=O)[C@H](CC(=O)NCC1CCCCC1)C2 | inconclusive [inhibitor, single point] | – |
| COc1ccc(CC(=O)Nc2ccc(S(=O)(=O)N3CCC(C)CC3)cc2)c(OC)c1 | inconclusive [inhibitor, single point] | – |
| CC(=O)c1cccc(NC(=O)Nc2ccc(C(=O)N3CCCC3)cc2)c1 | inconclusive [inhibitor, partial curve] | – |
| C=CCNC(=S)NCc1ccccc1OC | inactive | – |
| Cc1cc(N/N=C/c2ccccc2F)nc(NCc2ccccc2)n1 | inconclusive [inhibitor, partial curve] | – |
